{"source": "paper PMC4336329", "about": "(PLoS ONE, 2015)", "note": "Hit rate of the full screen: of about 310,000 compounds, about 14,000 (4.5%) showed an effect of 50% or more. Effects have a minus sign here. This is one part of the list.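 Also: peak tail current of the secondary pulse compared with the same well before compound.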", "data": [{"biological_target": "human ether-à-go-go-related gene (hERG) potassium channel (human, UniProt Q12809)", "sequence (Q12809 whole entry, looked up)": "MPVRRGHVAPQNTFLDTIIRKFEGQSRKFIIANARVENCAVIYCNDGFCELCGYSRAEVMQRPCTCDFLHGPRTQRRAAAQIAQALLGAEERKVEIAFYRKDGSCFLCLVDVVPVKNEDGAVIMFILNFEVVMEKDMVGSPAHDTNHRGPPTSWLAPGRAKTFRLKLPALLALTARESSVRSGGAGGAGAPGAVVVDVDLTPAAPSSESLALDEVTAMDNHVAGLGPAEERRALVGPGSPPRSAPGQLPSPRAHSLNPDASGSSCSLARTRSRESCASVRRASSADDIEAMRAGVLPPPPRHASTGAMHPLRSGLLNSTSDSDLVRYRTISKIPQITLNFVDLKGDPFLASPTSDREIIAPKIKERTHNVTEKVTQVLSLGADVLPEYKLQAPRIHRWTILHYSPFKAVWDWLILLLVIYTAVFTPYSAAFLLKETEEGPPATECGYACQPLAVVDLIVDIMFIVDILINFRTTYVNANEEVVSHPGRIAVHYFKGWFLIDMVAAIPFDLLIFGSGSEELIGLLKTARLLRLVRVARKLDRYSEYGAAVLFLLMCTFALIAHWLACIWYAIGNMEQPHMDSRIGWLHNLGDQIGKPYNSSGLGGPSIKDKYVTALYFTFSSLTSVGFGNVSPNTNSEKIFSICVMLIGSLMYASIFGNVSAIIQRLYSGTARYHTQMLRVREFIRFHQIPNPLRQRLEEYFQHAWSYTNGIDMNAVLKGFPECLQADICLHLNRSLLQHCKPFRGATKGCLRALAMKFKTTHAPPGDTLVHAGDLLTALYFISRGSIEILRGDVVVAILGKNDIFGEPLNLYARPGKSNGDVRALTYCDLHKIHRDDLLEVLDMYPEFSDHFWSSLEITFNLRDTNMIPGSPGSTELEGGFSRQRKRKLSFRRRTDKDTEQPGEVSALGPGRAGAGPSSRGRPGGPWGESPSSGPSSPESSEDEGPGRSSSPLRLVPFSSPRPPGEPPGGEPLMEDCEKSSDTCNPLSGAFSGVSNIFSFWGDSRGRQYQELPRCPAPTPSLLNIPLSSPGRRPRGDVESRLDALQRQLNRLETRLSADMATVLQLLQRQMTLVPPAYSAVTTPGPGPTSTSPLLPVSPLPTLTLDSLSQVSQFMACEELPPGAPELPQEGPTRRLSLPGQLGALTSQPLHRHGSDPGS", "experiment": "primary screen, population patch clamp on CHO cells stably expressing hERG", "units": {"hERG current change (%, negative = inhibition) at 10uM": "%"}, "values": [{"smiles": "Cc1noc(C)c1S(=O)(=O)Nc1ccc(C(=O)NC2CCCCC2)cc1", "hERG current change (%, negative = inhibition) at 10uM": 0.971}, {"smiles": "COc1cc(OC)c(/C=N/n2c(C)nnc2C)c(OC)c1", "hERG current change (%, negative = inhibition) at 10uM": 6.85}, {"smiles": "Nc1c(C(=O)c2ccc(Cl)cc2)oc2ccccc12", "hERG current change (%, negative = inhibition) at 10uM": 16.6}, {"smiles": "Cn1nccc1NC(=O)COCC(=O)O", "hERG current change (%, negative = inhibition) at 10uM": 3.82}, {"smiles": "CCCCn1c2nc3ccccc3nc2c2c(=O)n(C(C)CC)cnc21", "note": "(stereo not shown)", "hERG current change (%, negative = inhibition) at 10uM": -18.2}, {"smiles": "O=C(Nc1ccccc1N1CCOCC1)c1cccs1", "hERG current change (%, negative = inhibition) at 10uM": -11.9}, {"smiles": "CCn1cc(C(=O)NCc2ccc(Cl)cc2)c(=O)c2cc(S(=O)(=O)N(C)C)ccc21", "hERG current change (%, negative = inhibition) at 10uM": -4.34}, {"smiles": "CCN1CCN(C(c2cc(OC)ccc2OC)c2nnnn2Cc2ccccc2)CC1.Cl", "note": "(stereo not shown)", "hERG current change (%, negative = inhibition) at 10uM": -18.9}, {"smiles": "Cc1c(Cl)c([N+](=O)[O-])nn1CC(=O)NCc1cccs1", "hERG current change (%, negative = inhibition) at 10uM": 3.07}, {"smiles": "O=C(COC(=O)C1(c2cccc(F)c2)CCCC1)NCc1ccc2c(c1)OCO2", "hERG current change (%, negative = inhibition) at 10uM": -10.2}, {"smiles": "Cc1nc2ccn(Cc3ccccc3)c(=O)c2cc1C(=O)N1CCN(c2ccccc2)CC1", "hERG current change (%, negative = inhibition) at 10uM": -74}, {"smiles": "CCCOC(=O)C1[C@H]2C(=O)N(Cc3ccco3)C[C@]23C=C[C@H]1O3", "note": "(stereo partly shown)", "hERG current change (%, negative = inhibition) at 10uM": 9.97}, {"smiles": "O=C(O)CCCCCN1C(=O)C(O)=C(C(=O)/C=C/c2ccccc2)C1c1ccccc1[N+](=O)[O-]", "note": "(stereo not shown)", "hERG current change (%, negative = inhibition) at 10uM": 15.6}, {"smiles": "COc1ccc(NC(=O)CCc2c(C)nn(-c3ccc(N4CCOCC4)nn3)c2C)cc1", "hERG current change (%, negative = inhibition) at 10uM": -1.21}, {"smiles": "CCC/C(O)=C1\\C(=O)CCCC1=NCCc1c(C)[nH]c2ccc(C)cc12", "hERG current change (%, negative = inhibition) at 10uM": -4.82}, {"smiles": "CCOC(=O)c1ccc(-c2ccc3c(c2)CCC3)nc1C", "hERG current change (%, negative = inhibition) at 10uM": 12.6}, {"smiles": "CCc1c(C)nc2c(C#N)c[nH]n2c1=O", "hERG current change (%, negative = inhibition) at 10uM": 31.2}, {"smiles": "COc1ccccc1NC(=O)CSc1ncnc2c1oc1ccccc12", "hERG current change (%, negative = inhibition) at 10uM": 12.2}, {"smiles": "CCS(=O)(=O)c1ccc2oc(SCC(=O)NCc3ccccc3)nc2c1", "hERG current change (%, negative = inhibition) at 10uM": -19.9}, {"smiles": "N#CC1=C(N)Oc2cc(N)ccc2C1C1CCCCC1", "note": "(stereo not shown)", "hERG current change (%, negative = inhibition) at 10uM": -23.6}, {"smiles": "CCCCCCC(=O)N(O)C1CC(=O)N(c2ccc(C)cc2)C1=O", "note": "(stereo not shown)", "hERG current change (%, negative = inhibition) at 10uM": -8.51}, {"smiles": "N#Cc1ccc(COc2cccnc2[N+](=O)[O-])cc1", "hERG current change (%, negative = inhibition) at 10uM": -26.3}, {"smiles": "N#C/C(=N\\Nc1ccc(Br)cc1)C(=N)N1CCOCC1", "hERG current change (%, negative = inhibition) at 10uM": -68.9}, {"smiles": "CCCNc1nc(NCC)nc(OC)n1", "hERG current change (%, negative = inhibition) at 10uM": 26}, {"smiles": "O=C(Nc1ccc(F)c([N+](=O)[O-])c1)N1C[C@H]2C[C@@H](C1)c1cccc(=O)n1C2", "hERG current change (%, negative = inhibition) at 10uM": 25.7}, {"smiles": "CN1CCN(C(=O)c2ccc(N(Cc3ccccc3Cl)S(C)(=O)=O)cc2)CC1", "hERG current change (%, negative = inhibition) at 10uM": 2.74}, {"smiles": "CCOc1cc(C(c2c(C)[nH][nH]c2=O)c2c(C)[nH][nH]c2=O)cc([N+](=O)[O-])c1O", "hERG current change (%, negative = inhibition) at 10uM": 19}, {"smiles": "O=C(CCS(=O)(=O)c1ccccc1)Nc1nnc(C(F)(F)F)s1", "hERG current change (%, negative = inhibition) at 10uM": 9.6}, {"smiles": "COC(=O)C1=C(NC(=O)c2ccccc2[N+](=O)[O-])CCS1", "hERG current change (%, negative = inhibition) at 10uM": 6.08}, {"smiles": "CCO[C@H]1OC(C(=O)O)=C[C@@H](C(C)(C)C)[C@@H]1CCCO", "hERG current change (%, negative = inhibition) at 10uM": 7.12}, {"smiles": "Cc1nn(CC(=O)Nc2nnc(CC(=O)N3CCCC3)s2)c(=O)c2ccccc12", "hERG current change (%, negative = inhibition) at 10uM": 14.7}, {"smiles": "CC(C)NCc1cc(Br)ccc1OCc1ccccc1.Cl", "hERG current change (%, negative = inhibition) at 10uM": -61.8}, {"smiles": "Cc1c(C)c2ccc(OCC(=O)Nc3ccccn3)c(C)c2oc1=O", "hERG current change (%, negative = inhibition) at 10uM": 21.7}, {"smiles": "CCOc1cccc(CN2CCCC(N3CCc4ccccc4C3)C2)c1O", "note": "(stereo not shown)", "hERG current change (%, negative = inhibition) at 10uM": -52.9}, {"smiles": "Cc1ccc(OCC(=O)Nc2cccc(S(=O)(=O)NC3=NCCCCC3)c2)cc1C", "hERG current change (%, negative = inhibition) at 10uM": -8.26}, {"smiles": "COc1ccc(NC(=O)Nc2c[nH]c(=O)[nH]c2=O)cc1", "hERG current change (%, negative = inhibition) at 10uM": 17.1}, {"smiles": "CC[C@H](C)Cc1cn([C@@H](CCCCN)C(=O)NCCCCCCCCCCC(=O)N2CCNCC2)nn1", "hERG current change (%, negative = inhibition) at 10uM": 17.3}, {"smiles": "CCCN(C(=O)Cn1ncc2c([nH]c3ccccc32)c1=O)c1ccccc1C", "hERG current change (%, negative = inhibition) at 10uM": 15.3}, {"smiles": "CCN1C(=O)N[C@@H](c2cccc(C(F)(F)F)c2)C(C(=O)OC)=C1C", "hERG current change (%, negative = inhibition) at 10uM": 6.24}, {"smiles": "COc1ccc(NC(=O)N2CCCC2C(=O)Nc2cccc(C)c2C)cc1", "note": "(stereo not shown)", "hERG current change (%, negative = inhibition) at 10uM": 4.86}, {"smiles": "CCOC(=O)C1=C(CC)OC(N)=C(C#N)C1c1cccs1", "note": "(stereo not shown)", "hERG current change (%, negative = inhibition) at 10uM": -0.872}, {"smiles": "CC(O)CNc1cnccn1", "note": "(stereo not shown)", "hERG current change (%, negative = inhibition) at 10uM": 8.76}, {"smiles": "CC(OC(=O)c1ccccc1NCCO)C(=O)NC1CCCCC1C", "note": "(stereo not shown)", "hERG current change (%, negative = inhibition) at 10uM": -7.74}, {"smiles": "CCCc1n(CC(O)COCC2CC=CCC2)c2ccccc2[n+]1C.[I-]", "note": "(stereo not shown)", "hERG current change (%, negative = inhibition) at 10uM": -42.4}, {"smiles": "CCOc1ccc(NC(=O)CS(=O)CC(=O)NC2CCCc3ccccc32)cc1", "note": "(stereo not shown)", "hERG current change (%, negative = inhibition) at 10uM": 14}, {"smiles": "COc1cc(NC(=O)C/C(C)=N/NC(=O)C2CCCCC2)c(OC)cc1Cl", "hERG current change (%, negative = inhibition) at 10uM": 9.28}, {"smiles": "CC1CCCC(NS(=O)(=O)c2ccc3c(c2)OCCO3)C1C", "note": "(stereo not shown)", "hERG current change (%, negative = inhibition) at 10uM": -20.9}, {"smiles": "Cc1ccc2nc3c(cc(C(=O)NCC4CCCO4)c(=N)n3CCCOC(C)C)c(=O)n2c1", "note": "(stereo not shown)", "hERG current change (%, negative = inhibition) at 10uM": -71.8}, {"smiles": "COc1ccccc1NC(=O)C1CCN(C(=O)NCc2ccccc2)CC1", "hERG current change (%, negative = inhibition) at 10uM": -2.19}, {"smiles": "COC(=O)CSc1cc([N+](=O)[O-])cc2c1c(C1OCCO1)nn2-c1ccccc1", "hERG current change (%, negative = inhibition) at 10uM": -5.4}, {"smiles": "O=C(NC1CCCCC1)C(c1ccco1)N(C(=O)c1csnn1)c1ccc(Cl)cc1", "note": "(stereo not shown)", "hERG current change (%, negative = inhibition) at 10uM": -27.8}, {"smiles": "c1ccc(Cn2ccnc2)cc1", "hERG current change (%, negative = inhibition) at 10uM": 19.6}, {"smiles": "COc1ccccc1OCCNC(=O)C1CC(=O)N(c2ccccc2OC)C1", "note": "(stereo not shown)", "hERG current change (%, negative = inhibition) at 10uM": 1.49}, {"smiles": "COc1ccc(-c2csc(Nc3ccccc3)n2)cc1", "hERG current change (%, negative = inhibition) at 10uM": 14}, {"smiles": "CCc1c(C(=O)Nc2ccc(C)c(C)c2)[nH]c(C)c1C(C)=O", "hERG current change (%, negative = inhibition) at 10uM": 11.1}, {"smiles": "CCOP(=O)(O)c1cccc(OCCOCCOc2cccc(P(=O)(O)OCC)c2)c1", "hERG current change (%, negative = inhibition) at 10uM": 4.45}, {"smiles": "COc1cc([N+](=O)[O-])ccc1N", "hERG current change (%, negative = inhibition) at 10uM": 14.2}, {"smiles": "O=[N+]([O-])c1cc2c(cc1C=Nc1ccccc1)OCO2", "hERG current change (%, negative = inhibition) at 10uM": 1.04}]}]}
